This note sets out measurements from publication PMC4336329 (PLoS ONE, 2015).

Molecules are shown by their SMILES. In all, about 310,000 compounds went through this assay and about 2,200 (0.71%) showed an effect of 50% or more. The effect is printed as a negative number. This is one part of the list.

Sequence of human ether-à-go-go-related gene (hERG) potassium channel (Q12809 whole entry, looked up): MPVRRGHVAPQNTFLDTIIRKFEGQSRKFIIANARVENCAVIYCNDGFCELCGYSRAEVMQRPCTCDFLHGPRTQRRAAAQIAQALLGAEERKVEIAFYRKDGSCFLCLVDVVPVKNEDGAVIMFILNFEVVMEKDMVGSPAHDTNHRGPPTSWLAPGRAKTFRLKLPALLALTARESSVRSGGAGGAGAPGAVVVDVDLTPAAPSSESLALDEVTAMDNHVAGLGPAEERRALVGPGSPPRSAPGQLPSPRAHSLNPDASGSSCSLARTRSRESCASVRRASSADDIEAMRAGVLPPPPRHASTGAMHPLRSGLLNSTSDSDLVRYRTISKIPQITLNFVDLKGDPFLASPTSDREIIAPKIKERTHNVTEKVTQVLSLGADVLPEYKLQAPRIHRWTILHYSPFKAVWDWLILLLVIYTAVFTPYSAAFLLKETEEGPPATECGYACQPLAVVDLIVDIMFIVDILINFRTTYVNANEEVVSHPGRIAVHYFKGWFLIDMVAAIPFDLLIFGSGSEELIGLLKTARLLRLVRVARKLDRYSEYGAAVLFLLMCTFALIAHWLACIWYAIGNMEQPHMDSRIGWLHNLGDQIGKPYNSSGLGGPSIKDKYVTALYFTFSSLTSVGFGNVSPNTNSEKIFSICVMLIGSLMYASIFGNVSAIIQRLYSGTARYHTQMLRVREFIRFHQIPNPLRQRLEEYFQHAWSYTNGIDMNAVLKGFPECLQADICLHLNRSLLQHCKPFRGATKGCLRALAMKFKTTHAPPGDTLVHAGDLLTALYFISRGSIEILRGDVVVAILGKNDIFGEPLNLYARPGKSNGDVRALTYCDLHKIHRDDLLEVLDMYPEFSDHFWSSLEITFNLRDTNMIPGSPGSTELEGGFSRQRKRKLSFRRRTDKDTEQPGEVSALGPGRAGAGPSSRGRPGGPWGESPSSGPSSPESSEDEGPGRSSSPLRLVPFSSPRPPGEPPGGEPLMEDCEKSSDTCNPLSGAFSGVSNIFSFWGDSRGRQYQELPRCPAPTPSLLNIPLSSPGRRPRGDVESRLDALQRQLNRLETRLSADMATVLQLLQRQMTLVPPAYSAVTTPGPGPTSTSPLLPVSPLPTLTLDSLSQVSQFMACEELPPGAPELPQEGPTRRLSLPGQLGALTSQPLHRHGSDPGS

This test has as its target human ether-à-go-go-related gene (hERG) potassium channel (human, UniProt Q12809). Nature of the test: primary screen, population patch clamp on CHO cells stably expressing hERG.
In the case of `COC(=O)[C@@]1(Cc2ccc(OC)cc2)[C@@H]2[C@@H](CC(=O)[C@H]2CC(=O)C(=O)N(C)C)CN1C(=O)c1ccccc1`, the “hERG current change (%, negative = inhibition) at 1uM” value was 4.46%.
The figure for `Cn1c(=O)[nH]c(=O)c2c1nc(CN1CCN(c3ccccc3F)CC1)n2CCc1ccccc1` is 12.7%; for `COc1nc(-c2ccccc2)ccc1-c1noc(-c2ccccc2F)n1` it is 15.8%; for `O=C(NCc1ccccc1)C1=C[C@@H](c2coc3ccccc3c2=O)C[C@@H](OCc2ccc(CO)cc2)O1` it is 8.12%.
The figure for `COc1ccc(NC(=O)C(=O)NCCN2CCN(C(=O)C(c3ccccc3)c3ccccc3)CC2)cc1` is -20.3%; for `CC(C)C(OC(=O)c1cccs1)C(=O)NC1CCCCC1` (centres unmarked) it is 8.3%; for `Cc1nn(C)c(C)c1CN(C)S(=O)(=O)c1ccc2ccccc2c1` it is 0.922%.
In the case of `O=C1CCn2nc(-c3ccc(Cl)cc3)cc2N1` it was 3.13%.
For the molecule `COc1ccccc1CC(=O)Nc1ccc(OC)c(OC)c1`, the “hERG current change (%, negative = inhibition) at 1uM” value stood at 16.8%.
The figure for `COc1ccc(CCC(=O)Nc2cc(Cl)ccc2OC)cc1` is 3.78%; for `O=C(NCC1CCCCC1)c1cccc(-c2ccc(O)cc2)c1` it is 18.8%; for `O=C(NCC(c1ccco1)N1CCN(c2ccc(F)cc2)CC1)c1cccs1` (centres unmarked) it is -0.0339%.
The figure for `Cc1ccnc2nc(C(=O)OCC(=O)N(CC(C)C)C3CCS(=O)(=O)C3)nn12` (centres unmarked) is 19.7%.
Turning to `COCCOC(=O)c1sc2nc[nH]c(=O)c2c1C`, the “hERG current change (%, negative = inhibition) at 1uM” value worked out at 15.8%.
In the case of `Cc1nnc(N2CCC(C(=O)N3CCCCCC3)CC2)c2nn(-c3ccc(Cl)cc3)c(C)c12` it was -13.5%; in that of `CC(C)CCNC(=O)C(c1ccco1)N(Cc1ccc(F)cc1)C(=O)c1snc(C(N)=O)c1N` (centres unmarked), 3.05%.
The figure for `CCC(C)(C)NC(=O)CN(C(=O)c1csnn1)c1cccc2c1CCCC2` is 16.1%.
In the case of `O=C1CN(S(=O)(=O)c2ccccc2)c2ccccc2N1` it was 12.7%; in that of `O=C1NC(=Nc2cccnc2)S/C1=C/c1ccc(F)cc1`, 3.23%.
In the case of `CCC(C)NC(=O)c1ccc2c(c1)N(Cc1ccccc1)C(=O)CS2` (centres unmarked), the “hERG current change (%, negative = inhibition) at 1uM” value stood at 6.91%.
The figure for `CCn1c(C)nnc1SCC(=O)Nc1cccc(Cl)c1` is 0.21%; for `O=C(COC(=O)c1cc(Br)ccc1O)Nc1ccc2c(c1)OCCO2` it is 4.95%; for `CSc1ccc(S(=O)(=O)NCC(=O)OCC(=O)N(C)C2CCCCC2)cc1[N+](=O)[O-]` it is 2.58%.
The figure for `COc1ccc(N=C2SC(C(=O)O)CC(=O)N2C)cc1` (centres unmarked) is 5.06%.
The figure for `Cc1ccc(N(CC(O)CN2CCCC2)S(=O)(=O)c2ccc(C)cc2)cc1.Cl` (centres unmarked) is -81.7%; for `CC(C)c1nc2ccc(C(=O)O)cc2[nH]1` it is 6.83%.
In the case of `Cc1cc(=O)oc(C)c1C(=O)OCC(=O)c1ccc(Cl)c(Cl)c1`, the “hERG current change (%, negative = inhibition) at 1uM” value was 3.79%.
In the case of `O=C(CN1CCCCCC1)Nc1ccccc1OC(F)F` it was 7.77%; in that of `COc1ccc(NC2c3ccccc3C(=O)N2c2ccccn2)cc1` (centres unmarked), -3.94%.
`Cc1oc(-c2ccccc2Cl)nc1CN(C)C(C)c1ccon1` (centres unmarked): the “hERG current change (%, negative = inhibition) at 1uM” value was determined as 7.79%.
In the case of `CCOC(=O)c1nnn(-c2nonc2N)c1CN(CC)CC` it was 3.41%; in that of `CCOCCCNC(=O)c1ccc(/C=C2\Oc3ccccc3N(C)C2=O)cc1`, 19.8%.
Take `CC(=O)c1c(C)[nH]c(C(=O)NC2CCCCC2)c1C`: the “hERG current change (%, negative = inhibition) at 1uM” value was found to be 9.04%.
As to `O=C(Cc1ccccc1)NCC(=O)N1CCC2(CC1)NCCc1[nH]cnc12`, the “hERG current change (%, negative = inhibition) at 1uM” value came to 18.4%.
As for `O=C(c1scc2c1CCCC2)N1CCOCC1`, the “hERG current change (%, negative = inhibition) at 1uM” value is on record as 6.2%.
For `Cc1ccc(C(=O)NC(c2ccccc2)C(Cl)Cl)cc1` (centres unmarked), the “hERG current change (%, negative = inhibition) at 1uM” value is on record as 4.46%.
The figure for `Cc1cccc(C(=O)O)c1NC(=O)c1ccc(F)cc1` is 13.4%.
For the molecule `Cc1ccc(NC(=O)Nc2ccccc2C(=O)NCc2ccccc2)cc1`, the “hERG current change (%, negative = inhibition) at 1uM” value turned out to be 2.53%.
In the case of `CC(Sc1nc2c(cc1C#N)CCCCC2)C(=O)O` (centres unmarked), the “hERG current change (%, negative = inhibition) at 1uM” value amounted to 12.8%.
For `S=C(Nc1ccc2c(c1)OCCO2)Nc1ccc2c(c1)OCO2`, the “hERG current change (%, negative = inhibition) at 1uM” value turned out to be 17.2%.
The figure for `O=C1CC(SCc2nc3ccccc3[nH]2)C(=O)N1c1ccc(F)c(Cl)c1` (centres unmarked) is -2.27%.
In the case of `CC(C(=O)O)N1C(=O)CSC1=S` (centres unmarked) it was 8.05%.
In the case of `CCOC(=O)C(=O)Nc1ccc(OCc2ccccc2)cc1` it was 4.71%; in that of `CCn1c(C)nc2cc(S(=O)(=O)N3CCCCC3)ccc21`, -0.0535%.
In the case of `CCOc1ccc(Cn2nnc(C(=O)Nc3ccc(OC)cc3OC)c2N)cc1`, the “hERG current change (%, negative = inhibition) at 1uM” value is 11.2%.
Turning to `CCN(CC)CCNC(=O)C1(O)c2cc(Br)ccc2NC(=O)N1c1c(F)cccc1F` (centres unmarked), the “hERG current change (%, negative = inhibition) at 1uM” value came out at 13.3%.
As to `CC(C)C(=O)NC(=O)COC(=O)/C=C/c1cccs1`, the “hERG current change (%, negative = inhibition) at 1uM” value stood at 13.3%.
In the case of `CNC(=O)CCCCCNS(=O)(=O)c1ccc(C)cc1` it was -1.73%.
`CC(=O)c1ccc(NC(=O)Nc2ccc(Cl)cc2)cc1`: the “hERG current change (%, negative = inhibition) at 1uM” value is on record as 6.57%.
The figure for `COc1cc(N=Cc2c(O)[nH]c3ccccc23)cc(OC)c1OC` is 12.5%.
Consider `Nc1ncc(S(=O)(=O)c2ccc(Cl)cc2)c(N)n1`, for which the “hERG current change (%, negative = inhibition) at 1uM” value worked out at 5.71%.
Turning to `O=C(NCC1CCCO1)/C(=C\c1ccccc1F)NC(=O)c1ccccc1` (centres unmarked), the “hERG current change (%, negative = inhibition) at 1uM” value came out at 5.25%.
The figure for `Cc1cc(C(=O)NCC(=O)OCC(=O)N2CCCCCC2)ccc1[N+](=O)[O-]` is 15.3%.
The figure for `Cc1ccccc1C(=O)NC1CCN(Cc2nnnn2C(C)(C)C)CC1` is 17.2%; for `COC(=O)c1sccc1NC(=O)c1cc(OC)c(OC)c(OC)c1` it is 6.61%; for `COC(=O)c1ccc(C(=O)NC2CCCN(Cc3ccc(Cl)cc3)C2)nc1` (centres unmarked) it is -11.3%.
In the case of `CCOC(=O)N1CCN(C(=O)COc2ccccc2Cl)CC1` it was 3.45%.
For the molecule `O=C1C=CC(O)(c2cc(=O)c3c(O)cc(O)cc3o2)C=C1`, the “hERG current change (%, negative = inhibition) at 1uM” value worked out at 19.7%.
In the case of `O=C(Nc1ccccc1-c1ccccc1)C(=O)Nc1ccccc1-c1ccccc1` it was 17.3%.
With `CCCCCCCNc1cccc(C)c1`, the “hERG current change (%, negative = inhibition) at 1uM” value is 11%.
In the case of `CCCCNC(=O)Nc1c(C)cc(SC#N)cc1C` it was 13.3%; in that of `N#C/C(=C\c1cccc(Br)c1)C(=O)N1CCCCC1`, 11.5%; in that of `N=c1oc2ccc(Br)cc2cc1C(=O)NCc1ccccc1`, 9%.
Consider `COc1ccc(CC(=O)NNc2ncnc3c2cnn3-c2ccc(C)cc2)cc1OC`, for which the “hERG current change (%, negative = inhibition) at 1uM” value was 8.68%.
In the case of `Cc1ccn2c(-c3csc(NCc4ccco4)n3)c(C)nc2c1` it was -24.7%; in that of `CC1Cc2ccccc2N1C(=O)COC(=O)c1ccc(S(=O)(=O)N(C)C)cc1` (centres unmarked), 15.2%.
In the case of `CC1(c2nnc(Cc3ccccc3)o2)CC(c2ccc(Cl)cc2)=NO1` (centres unmarked) it was -11.4%.
In the case of `COc1cc(/C=N/n2c(COc3ccccc3)n[nH]c2=S)cc(Br)c1O` it was 14.5%; in that of `Cc1cc(/C=N/NC(=O)CC2(C)OCCO2)c(C)n1-c1cc(Cl)cc(Cl)c1`, 4.79%; in that of `Nc1ccnn1Cc1ccc(Br)s1`, 12.9%.
Turning to `O=C(Nc1ccc2c(c1)OCO2)c1cccc(F)c1`, the “hERG current change (%, negative = inhibition) at 1uM” value is 10%.
In the case of `COC(=O)c1ccc(NC(=O)CC2C(=O)N(C)C(=S)N2Cc2ccc(S(N)(=O)=O)cc2)cc1` (centres unmarked) it was 13.9%.
For the molecule `Nc1cc(N2CCOCC2)c(Cl)cc1[N+](=O)[O-]`, the “hERG current change (%, negative = inhibition) at 1uM” value is on record as 6.48%.
The figure for `O=C(O)c1ccccc1-c1cc2ccccc2[nH]1` is 12%; for `O=C(CC1CC2CCC1C2)N1CCN(S(=O)(=O)c2ccccc2C(F)(F)F)CC1` (centres unmarked) it is 2.47%.
The figure for `OC(c1ccc2c(c1)OCO2)c1nccc2ccccc12` (centres unmarked) is 6.49%; for `CC(C)n1c(-c2ccccc2)nc(=S)c2c1CCCC2` it is 6.31%; for `Cc1cc(SCc2ccccc2F)nc(=O)[nH]1` it is 15.1%.
In the case of `Cc1[nH]c2ccccc2c1C(=O)CSc1ncn[nH]1` it was 15.9%.
With `Cl.FC(F)Sc1ccc(NC2=NCCCCC2)cc1`, the “hERG current change (%, negative = inhibition) at 1uM” value is recorded as -7.36%.
Regarding `Cc1cccn2c(/C=N/OCc3ccc(F)cc3)c(-c3ccc(Cl)cc3)nc12`, the “hERG current change (%, negative = inhibition) at 1uM” value was determined as 12.4%.
The figure for `CCCCC1C(=O)N(c2ccccc2)N(c2ccccc2)C1=O` is 14.1%; for `CCOc1ccc(C2CC(=O)c3c([nH]c(C(=O)OC)c3C)C2)cc1OC` (centres unmarked) it is 2.14%; for `CCC(C)NC(=O)Cn1cnc2sc(C)c(S(=O)(=O)N3CCN(c4ncccn4)CC3)c2c1=O` (centres unmarked) it is 17.7%.
The figure for `O=[N+]([O-])c1ccc(S(=O)(=O)NCCc2cn3ccccc3n2)cc1` is -15.5%; for `NNC(=O)c1sccc1OCc1ccc(F)cc1` it is 8.12%; for `CCN1CCN(CCCNC(=O)c2ccc3c(c2)NC(=O)/C(=C\c2cccc(C)c2)S3)CC1` it is 0.165%.
With `COCCN(CC(=O)NCC1CCCO1)C(=O)CCC(=O)Nc1ccccn1` (centres unmarked), the “hERG current change (%, negative = inhibition) at 1uM” value stood at 14.8%.
In the case of `CCCC1(c2ccccc2)NC(=O)N(CC(=O)NCc2ccc(C)cc2)C1=O` (centres unmarked) it was 12.8%.
In the case of `Cc1cc(NS(=O)(=O)c2ccccc2)c([N+](=O)[O-])cc1C` it was 14%; in that of `COc1ccc(NC(=O)CN2C(=O)CSc3ccc(S(=O)(=O)N4CCC(C)CC4)cc32)cc1`, 20.8%; in that of `CCOC(=O)C1=C(O)/C(=C/c2cc(OC)c(OC)c(OC)c2)SC1=Nc1ccc(OC)cc1`, 8.28%.
